Measured values as given in patent US12421317B2, “Polynucleotides encoding anti-glucagon-like peptide 1 receptor (GLP1R) antagonist antibodies” (Regeneron Pharmaceuticals, Inc., priority 2020, dated 2025).
Marks after values point to notes of the source that are not given here.

Assays:
[1] = target: T1, hGLP1R-MMH (N-terminal region of human GLP1R-MMH) (Homo sapiens, UniProt P43220); experiment: SPR (Biacore 4000) binding of captured GLP1R mAbs to hGLP1R-MMH
T1 construct: the N-terminal region of human GLP1R-MMH (hGLP1R-MMH)
T1 sequence (P43220 with tags, fused parts or gaps): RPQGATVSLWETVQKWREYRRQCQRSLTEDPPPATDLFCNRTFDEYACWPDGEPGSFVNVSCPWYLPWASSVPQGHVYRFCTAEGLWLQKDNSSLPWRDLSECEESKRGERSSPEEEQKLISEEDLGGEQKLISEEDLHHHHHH
Protocol: (§1) The equilibrium dissociation constant (KD) for GLP1R binding to selected GLP1R monoclonal antibodies (mAbs) was determined using a real-time surface plasmon resonance biosensor using a Biacore 4000 instrument. All binding studies were performed in 10 mM HEPES, 150 mM NaCl, 3 mM EDTA, and 0.05% v/v Surfactant Tween-20, pH 7.4 (HBS-ET) running buffer at 25° C. and 37° C. The Biacore CM5 sensor chip surface was first derivatized by amine coupling with human Fc specific mouse mAb to capture different GLP1R mAbs. Different concentrations (100, 25, and 6.25 nM) of the N-terminal region of human GLP1R-MMH (hGLP1R-MMH; SEQ ID NO: 59), human GLP1R expressed with mouse IgG2a Fc (hGLP1R-mFc; SEQ ID NO: 63), an in-line fusion protein of human desA-GLP1 and GLP1R-MMH (hdesA-GLP1_GLP1R-MMH; SEQ ID NO: 62), Macaca fascicularis GLP1R-MMH (mfGLP1R-MMH; SEQ ID NO: 60) or 100 nM mouse GLP1R-MMH (mGLP1R-MMH; SEQ ID NO: 61) prepared in HBS-ET running buffer were injected over the GLP1R mAb captured surface for 150 sec at a flow rate of 30 μL/min and their dissociation in HBS-ET running buffer was monitored for 10 minutes. At the end of each cycle, the GLP1R mAb capture surface was regenerated using a 12 sec injection of 20 mM phosphoric acid.
(§2) The association rate (ka) and dissociation rate (Kd) were determined by fitting the real-time binding sensorgrams to a 1:1 binding model with mass transport limitation using Scrubber 2.0 c curve-fitting software. Binding dissociation equilibrium constant (KD) and dissociative half-life (t½) were calculated from the kinetic rates as: […]

[2] = target: T2, hGLP1R-mFc (human GLP1R expressed with mouse IgG2a Fc) (Homo sapiens, UniProt P43220); experiment: SPR (Biacore 4000) binding of captured GLP1R mAbs to hGLP1R-mFc
T2 construct: human GLP1R expressed with mouse IgG2a Fc (hGLP1R-mFc)
T2 sequence (P43220 with tags, fused parts or gaps): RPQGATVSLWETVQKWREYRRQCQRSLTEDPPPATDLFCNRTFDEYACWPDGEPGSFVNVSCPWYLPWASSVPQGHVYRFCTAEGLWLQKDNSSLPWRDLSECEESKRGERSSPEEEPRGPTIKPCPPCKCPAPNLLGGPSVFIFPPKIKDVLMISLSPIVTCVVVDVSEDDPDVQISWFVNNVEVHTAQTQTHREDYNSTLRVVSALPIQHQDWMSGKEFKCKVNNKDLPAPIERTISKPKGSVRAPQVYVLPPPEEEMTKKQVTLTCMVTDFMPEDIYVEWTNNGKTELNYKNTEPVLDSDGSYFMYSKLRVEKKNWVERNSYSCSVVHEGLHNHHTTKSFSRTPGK
Protocol: as §1, §2

[3] = tested on: mfGLP1R-MMH (Macaca fascicularis GLP1R-MMH); experiment: SPR (Biacore 4000) binding of captured GLP1R mAbs to mfGLP1R-MMH
Protocol: as §1, §2

[4] = target: T3, mGLP1R-MMH (mouse GLP1R-MMH) (Mus musculus, UniProt O35659); experiment: SPR (Biacore 4000) binding of captured GLP1R mAbs to mGLP1R-MMH
T3 construct: 100 nM mouse GLP1R-MMH (mGLP1R-MMH)
T3 sequence (O35659 with tags, fused parts or gaps): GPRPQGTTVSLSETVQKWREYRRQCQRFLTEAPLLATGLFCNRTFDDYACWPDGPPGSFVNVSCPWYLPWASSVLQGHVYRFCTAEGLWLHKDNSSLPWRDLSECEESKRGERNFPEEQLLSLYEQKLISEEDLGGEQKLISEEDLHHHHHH
Protocol: as §1, §2

[5] = tested on: GLP1R humanized mice; experiment: Exendin-4 induced hypoglycemia in GLP1R humanized mice (Example 5); type: in vivo; conditions: for Blood glucose levels / Percent differences in blood glucose levels from Group 1: Exendin-4 challenge, antibody 25 mg/kg s.c. on Day 0, mean
Protocol: For the study, 35 mice were randomly divided into one group of fourteen mice and three groups of seven mice. On Day 0, the group of fourteen animals (later divided into Groups 1 and 2) were administered subcutaneously (s.c.) with a mIgG2 isotype control antibody (referred to as Isotype control, dose of 25 mg/kg), whereas the other three groups (n=7/group) were each administered s.c. (dose of 25 mg/kg) with mAb36986 (Group 3), mAb37639 (Group 4), or mAb37645 (Group 5). The next day (Day 1), the isotype control administered fourteen animals were randomly divided into two groups (Group 1 and 2) of seven mice each. At 0 minute on Day 1, animals in Group 1 were administered intraperitoneally (i.p.) with saline, whereas animals in Group 2 were administered i.p. with Exendin-4 (dose of 0.01 mg/kg). At the same time point, animals in Groups 3, 4, and 5 were administered i.p. with Exendin-4 (dose of 0.01 mg/kg). For all animals, blood glucose levels were measured with a handheld glucometer immediately before saline or Exendin-4 administration, and 15, 30, 60, and 120 minutes post administration. All animals remained in their assigned groups until the study completion on Day 67. The Exendin-4 challenge performed on Day 1 was repeated on Days 8, 22, 46, and 67. Mean±SEM of percent differences in blood glucose levels from Group 1 at each time point was calculated for each group and shown in Table 16. Statistical analyses were performed by two-way ANOVA followed by Bonferroni post-hoc tests, comparing Groups 2, 3, 4, and 5 to Group 1.

B1: mAb36986: fully human anti-GLP1R antagonist antibody; HCVR/LCVR SEQ ID NOs: 2/10; heavy/light chain 18/20 (antibody)
heavy: QVQLVQSGTEVKKPGASVKVSCMASGYTFTTYGISWVRQAPGQGLEWMGWISAYNGNTKYAQRLQGRVTMTTDTSTTTAYMGLRGLRSDDTAVYFCARVTLSGRFDYWGQGTLVTVSPASTKGPSVFPLAPCSRSTSESTAALGCLVKDYFPEPVTVSWNSGALTSGVHTFPAVLQSSGLYSLSSVVTVPSSSLGTKTYTCNVDHKPSNTKVDKRV[human IgG4 Fc with S228P (EU numbers) not printed]
light: DIQMTQSPSSLSASVGDRVTITCQASQDISDYLNWYQQKPGKAPKLLIYDASNLETGVPSRFSGSGSGTDFTFTIRSLQPEDIATYYCQQYDNLPYTFGQGTKLEIKRTVAAPSVFIFPPSDEQLKSGTASVVCLLNNFYPREAKVQWKVDNALQSGNSQESVTEQDSKDSTYSLSSTLTLSKADYEKHKVYACEVTHQGLSSPVTKSFNRGEC
notes: fully human anti-GLP1R antagonist antibody; heavy/light chain 18/20
With B1 the ka ([1]; 25° C.) was 717000 M⁻¹ s⁻¹, the kd ([1]; 25° C.) was 9.97e-05 s⁻¹ and the ka ([1]; 37° C.) was 915000 M⁻¹ s⁻¹. For the same molecule, the kd ([1]; 37° C.) was 0.000544 s⁻¹, the ka ([2]; 25° C.) was 104000 M⁻¹ s⁻¹ and the kd ([2]; 25° C.) was 7.64e-05 s⁻¹. For the same molecule, the ka ([2]; 37° C.) was 129000 M⁻¹ s⁻¹, the kd ([2]; 37° C.) was 0.000432 s⁻¹ and the ka ([3]; 25° C.) was 240000 M⁻¹ s⁻¹. The kd ([3]; 25° C.) was 0.000102 s⁻¹, the ka ([3]; 37° C.) was 315000 M⁻¹ s⁻¹ and the kd ([3]; 37° C.) was 0.000501 s⁻¹. It also gave a ka ([4]; 25° C.) of 449000 M⁻¹ s⁻¹, a kd ([4]; 25° C.) of 0.00902 s⁻¹ and a ka ([4]; 37° C.) of 649000 M⁻¹ s⁻¹. The kd ([4]; 37° C.) was 0.0485 s⁻¹, the “glucose normalizing effects during Exendin-4 challenges” value ([5]; 25 mg/kg s.c. on Day 0, challenges on Days 1, 8, 22, 46, 67) was “glucose levels similar to the level measured from Group 1 at every time point on each day when Exendin-4 challenge was performed with exception of the last day (Day 67)” and the Blood glucose levels ([5]; Day 1, 0 min) was 214 mg/dL. For the same molecule, the “Percent differences in blood glucose levels from Group 1” value (“Percent differences” below) ([5]; Day 1, 0 min) was 11%, the Blood glucose levels ([5]; Day 1, 15 min) was 248 mg/dL and the “Percent differences” value ([5]; Day 1, 15 min) was −3%. For the same molecule, the Blood glucose levels ([5]; Day 1, 30 min) was 252 mg/dL, the “Percent differences” value ([5]; Day 1, 30 min) was −1% and the Blood glucose levels ([5]; Day 1, 60 min) was 225 mg/dL. For the same molecule, the “Percent differences” value ([5]; Day 1, 60 min) was −4%, the Blood glucose levels ([5]; Day 1, 120 min) was 218 mg/dL and the “Percent differences” value ([5]; Day 1, 120 min) was −2%. For the same molecule, the Blood glucose levels ([5]; Day 8, 0 min) was 196 mg/dL, the “Percent differences” value ([5]; Day 8, 0 min) was −8% and the Blood glucose levels ([5]; Day 8, 15 min) was 238 mg/dL. For the same molecule, the “Percent differences” value ([5]; Day 8, 15 min) was −8%, the Blood glucose levels ([5]; Day 8, 30 min) was 245 mg/dL and the “Percent differences” value ([5]; Day 8, 30 min) was 0%. For the same molecule, the Blood glucose levels ([5]; Day 8, 60 min) was 242 mg/dL, the “Percent differences” value ([5]; Day 8, 60 min) was 0% and the Blood glucose levels ([5]; Day 8, 120 min) was 199 mg/dL. For the same molecule, the “Percent differences” value ([5]; Day 8, 120 min) was −5%, the Blood glucose levels ([5]; Day 22, 0 min) was 207 mg/dL and the “Percent differences” value ([5]; Day 22, 0 min) was −1%. The Blood glucose levels ([5]; Day 22, 15 min) was 251 mg/dL, the “Percent differences” value ([5]; Day 22, 15 min) was −6% and the Blood glucose levels ([5]; Day 22, 30 min) was 232 mg/dL. For the same molecule, the “Percent differences” value ([5]; Day 22, 30 min) was −8%, the Blood glucose levels ([5]; Day 22, 60 min) was 229 mg/dL and the “Percent differences” value ([5]; Day 22, 60 min) was −4%. For the same molecule, the Blood glucose levels ([5]; Day 22, 120 min) was 219 mg/dL, the “Percent differences” value ([5]; Day 22, 120 min) was 5% and the Blood glucose levels ([5]; Day 46, 0 min) was 180 mg/dL. For the same molecule, the “Percent differences” value ([5]; Day 46, 0 min) was −2%, the Blood glucose levels ([5]; Day 46, 15 min) was 237 mg/dL and the “Percent differences” value ([5]; Day 46, 15 min) was −3%. The Blood glucose levels ([5]; Day 46, 30 min) was 224 mg/dL, the “Percent differences” value ([5]; Day 46, 30 min) was −10% and the Blood glucose levels ([5]; Day 46, 60 min) was 222 mg/dL. The “Percent differences” value ([5]; Day 46, 60 min) was −2%, the Blood glucose levels ([5]; Day 46, 120 min) was 206 mg/dL and the “Percent differences” value ([5]; Day 46, 120 min) was 11%. For the same molecule, the Blood glucose levels ([5]; Day 67, 0 min) was 199 mg/dL, the “Percent differences” value ([5]; Day 67, 0 min) was 2% and the Blood glucose levels ([5]; Day 67, 15 min) was 210* mg/dL. The “Percent differences” value ([5]; Day 67, 15 min) was −21%, the Blood glucose levels ([5]; Day 67, 30 min) was 144**** mg/dL and the “Percent differences” value ([5]; Day 67, 30 min) was −45*** %. The Blood glucose levels ([5]; Day 67, 60 min) was 155*** mg/dL, the “Percent differences” value ([5]; Day 67, 60 min) was −34** % and the Blood glucose levels ([5]; Day 67, 120 min) was 190 mg/dL. The “Percent differences” value ([5]; Day 67, 120 min) was −16%, the hyperglycemia ([5]; blood glucose at 0 minute vs Group 1, 25 mg/kg s.c., mice) was “does not cause hyperglycemia” and the “duration of correction of GLP1-induced (exendin-4 induced) hypoglycemia” value ([5]; single dose 25 mg/kg s.c., mice) was ≥ 46 days.
